Data from PubChem BioAssay AID1159614 (National Center for Advancing Translational Sciences (NCATS), 2016).
The whole screen tested about 45,000 compounds, of which about 65 (0.1%) were called active. Calls follow the shape of the dose curve; as a rule, active = well fitted activation curve with a large enough effect; inconclusive = small, poorly fitted or top-dose-only effect; inactive = no such curve, though single readings can be large or run the other way. This is one part of the list.

Each compound was assayed against Galactocerebrosidase (Homo sapiens) (UniProt P54803) (assay: A Novel Cell-Based Assay to Identify Small Molecules for B -Galactocerebrosidase). Conditions: 145M-Twi-hGALC-G270D cells (Twitcher mouse brain line with human GALC G270D), HMU-beta-Gal fluorescence, 48 h; series mostly up to 57.5 µM; activation: at the top concentration.
Sequence of UniProt P54803 (P54803 whole entry, looked up): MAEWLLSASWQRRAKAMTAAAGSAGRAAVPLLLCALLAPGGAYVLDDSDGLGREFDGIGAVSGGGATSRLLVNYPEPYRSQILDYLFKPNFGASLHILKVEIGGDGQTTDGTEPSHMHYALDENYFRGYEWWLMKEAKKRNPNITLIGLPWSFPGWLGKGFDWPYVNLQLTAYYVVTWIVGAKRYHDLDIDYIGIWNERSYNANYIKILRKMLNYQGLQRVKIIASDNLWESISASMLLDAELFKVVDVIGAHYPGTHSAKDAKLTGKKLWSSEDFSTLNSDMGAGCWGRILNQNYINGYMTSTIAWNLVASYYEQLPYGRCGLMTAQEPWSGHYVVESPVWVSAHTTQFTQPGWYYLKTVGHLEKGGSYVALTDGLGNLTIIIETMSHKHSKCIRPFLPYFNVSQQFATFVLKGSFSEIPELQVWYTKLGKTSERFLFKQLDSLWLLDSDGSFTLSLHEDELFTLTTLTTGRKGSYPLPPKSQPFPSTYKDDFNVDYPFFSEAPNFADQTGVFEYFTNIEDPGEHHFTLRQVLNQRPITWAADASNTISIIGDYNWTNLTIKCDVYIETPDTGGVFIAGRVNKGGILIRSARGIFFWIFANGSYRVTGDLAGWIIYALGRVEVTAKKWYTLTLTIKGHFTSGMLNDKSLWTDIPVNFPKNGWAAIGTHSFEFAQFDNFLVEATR
Summary of the method: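 Live 145M-Twi cells (Twitcher mouse brain-derived, GALC-null) stably expressing human GALC-G270D, with a wild-type GALC line, were compound-treated. Residual GALC activity was then read as fluorescence from 0.1 mM final HMU-β-gal at pH 5.2; higher signal means activation.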
Also: 0% is about no effect; nearly all actives have a fitted effect of over 65% in size.

Row | Structure (SMILES) | activation
1 | COc1ccc(CC(=O)Nc2c(C(=O)Nc3ccc(F)cc3)oc3ccccc23)cc1OC | inactive: -9.68%
2 | CCCCNc1nc(Oc2ccc(OCCC)nn2)nc(N(C)C)n1 | inactive: -11.5%
3 | COc1ccc(-n2c(/C=C/c3cccc4ccccc34)nc3ccccc3c2=O)cc1Cl | inactive: -11.3%
4 | COc1cc2c(C(=O)Nc3ccc(C)cc3Br)cn(C)c(=O)c2cc1OC | inactive: -2.89%
5 | CCOC(=O)c1ccc(NC2=CC(c3ccc(O)c(OCC)c3)N(c3ccc(C(=O)OCC)cc3)C2=O)cc1 (stereo not drawn) | inactive: -3.23%
6 | CCCN1CCN(CCNC(=O)Nc2cc(C)ccc2OC)CC1 | inactive: -15.8%
7 | CCC1CCCCN1CCCNC(=O)c1c(O)nc2c(C)cccn2c1=O (stereo not drawn) | inactive: -12%
8 | Cc1ccccc1C(=O)Nc1nnc(S(=O)(=O)N(C)Cc2ccc(Cl)cc2)s1 | inactive: -38.3%
9 | N#Cc1ccccc1Cn1c(=O)n(CCCCC(=O)NCc2ccc3c(c2)OCO3)c(=O)c2ccccc21 | inactive: -5.54%
10 | Cc1ccc(CNC(=O)c2nc(-c3ccc(Cl)cc3)n3c2CCCCC3)cc1 | inactive: -18%
11 | O=C(Cc1ccc(F)cc1)N1CCC(c2nc3c(nnn3Cc3ccc(F)cc3)c(=O)[nH]2)CC1 | inactive: -1.29%
12 | CCCn1c(=O)c2sccc2n2c(CCCC(=O)Nc3ccccc3OCC)nnc12 | inactive: -18.4%
13 | Cc1ccc(CN(C(=O)COc2ccc(C(C)C)cc2)C2CCS(=O)(=O)C2)o1 (stereo not drawn) | inactive: 0.312%
14 | COc1ccc(CC(=O)N2CC(=O)Nc3ccc(Br)cc3C2c2ccc(F)cc2)cc1 (stereo not drawn) | inactive: -23.5%
15 | CCn1cc2nc(SCc3ccc(C)cc3)n(CCc3ccccc3)c(=O)c2n1 | inactive: -2.89%
16 | Cc1ccc(OCC(=O)Nc2ccc(Cl)c(-c3nc4ccccc4[nH]3)c2)cc1C | inactive: -8.18%
17 | COc1ccc(S(=O)(=O)N(CC(=O)N(C)Cc2ccccc2)c2ccc(Cl)cc2)cc1 | inactive: -9.46%
18 | Cc1cccc(OCC(=O)Nc2ccc(-c3nc4cc(C)ccc4o3)c(O)c2)c1 | inactive: -34.8%
19 | CCC1CN(C(=O)N2CCC(C(=O)NCCC3=CCCCC3)CC2)c2cc(C)ccc2O1 (stereo not drawn) | inactive: -14.8%
20 | COc1ccc(NC(=O)CSc2nnc(NC(=O)Nc3ccccc3)s2)c(OC)c1 | inactive: -9.11%
21 | COc1cc(Cc2cnc(N)nc2N)cc(OC)c1OC | inactive: -9.65%
22 | COc1ccc(Cn2c(=O)[nH]c3cc(C(=O)N4CCN(c5cccc(OC)c5)CC4)ccc3c2=O)cc1 | inactive: -10.5%
23 | CC1CCCN(c2cc3c(cc2F)c(=O)c(S(=O)(=O)c2cccc(Cl)c2)cn3C)C1 (stereo not drawn) | inactive: -14.7%
24 | Cc1cc(C)cc(NC(=O)N2CCN3CCCCC3C2)c1 (stereo not drawn) | inactive: -11.1%

Row | Structure (SMILES) | activation
25 | CC(C)(C)c1ccc(C(=O)NC(Cc2c[nH]c3ccccc23)C(=O)OCC(=O)c2ccccc2)cc1 (stereo not drawn) | inactive: -17.8%
26 | CCOC(=O)c1ccc(NC(=O)c2c(NCc3sccc3C)sc3c2CCCCC3)cc1 | inactive: -16.4%
27 | O=C(NC1CCCCC1)c1c[nH]c2ccc(S(=O)(=O)Nc3ccccc3F)cc2c1=O | inactive: -7.88%
28 | Cn1cc(C(=O)NCc2ccc(Cl)cc2)c(=O)c2cc(S(=O)(=O)N3CCCCCC3)ccc21 | inactive: -16.2%
29 | Cc1cc(C)c2c(n1)SCCN2C(=O)Nc1ccc(C(=O)Nc2cc(Cl)ccc2C)cc1 | inactive: -15.4%
30 | COc1cccc(C(=O)Nc2cc3cc(OC)ccc3oc2=O)c1 | inactive: 0.132%
31 | COC(=O)c1cc2sc(Cl)cc2n1Cc1nc(-c2ccc(OC)cc2)oc1C | inactive: -11.1%
32 | COc1ccc(N(CC(=O)NCCc2cccc(C)c2)S(=O)(=O)c2c(C)noc2C)cc1 | inactive: -6.04%
33 | Cc1cc(C(=O)NCCc2ccc(Cl)cc2)c2c(C)nn(-c3cccc(F)c3)c2n1 | inactive: -1.63%
34 | Cc1ccc(C(=O)Nc2ccc(C(=O)OCc3cc(=O)n4ccsc4n3)cc2)cc1 | inactive: -20.7%
35 | CC(C)(C)c1ccc(C2NC(=O)c3n[nH]c(-c4cccs4)c32)cc1 (stereo not drawn) | inactive: -18%
36 | Cc1ccc(Cl)cc1NC(=O)COCc1cc(-c2ccco2)on1 | inactive: 3.5%
37 | CCCCSCCCNC(=O)CN1C(=O)COc2ccc(S(=O)(=O)N3CCC(C)CC3)cc21 | inactive: 12.3%
38 | COc1ccc(C)cc1NC(=O)C(=O)NCC1(c2ccccc2)CCCC1 | inactive: -10.7%
39 | O=C(Nc1nnc(S(=O)(=O)N2CCN(c3ccc(F)cc3)CC2)s1)c1ccc(Cl)cc1 | inactive: -9.11%
40 | O=C(CNC(=O)c1ccc(Cl)cc1)OCc1cc(=O)n2ccsc2n1 | inactive: -5.43%
41 | COc1ccc(-c2[nH]c3c(c2-c2c(-n4cccc4)n(C)c(=O)n(C)c2=O)c(=O)n(C)c(=O)n3C)cc1 | inactive: -18.3%
42 | COc1ccccc1N1CCN(c2ncnc3c2nc2n3CCCC2)CC1 | inactive: 4.5%
43 | COC(=O)c1ccc(NC(=O)Cn2nc(C(=O)Nc3ccc(C)cc3)ccc2=O)cc1 | inactive: -5.71%
44 | Cc1ccc(NC(=O)Cn2c(CCC(=O)O)ccc2-c2ccc(Cl)cc2)cc1 | inactive: -15.5%
45 | Cc1ccc(Cn2cc(CCC(=O)NCc3ccccc3F)c3ccccc32)cc1 | inactive: -6.28%
46 | CCN(CC)S(=O)(=O)c1ccc2c(c1)N(CC(=O)N(C)Cc1ccccc1)C(=O)CO2 | inactive: -8.83%
47 | COCCNC(=O)C(=O)NCC(c1cccnc1)N1CCN(c2ccccc2)CC1 (stereo not drawn) | inactive: -6.29%
48 | Cc1ccc(-n2c(SCC(=O)Nc3c(C)cccc3C)nc(O)c(C)c2=O)cc1 | inactive: -7.2%

Row | Structure (SMILES) | activation
49 | CCC1CN(C(=O)N2CCC(C(=O)NCc3ccco3)CC2)c2ccccc2O1 (stereo not drawn) | inactive: -13.4%
50 | O=C(Cc1ccc(Cl)cc1)Nc1ccc2nn(-c3ccccc3)nc2c1 | inactive: -14.9%
51 | Cc1ccccc1C(c1c(C)n(C)n(-c2ccccc2)c1=O)c1c(C)n(C)n(-c2ccccc2)c1=O | inactive: -20.2%
52 | CC(C)CCNc1ncnc2c1cnn2-c1cccc(Cl)c1 | inactive: -2.57%
53 | Cc1ccc(-n2ncc3c(=O)n(Cc4ccccc4C)cnc32)cc1C | inactive: -15.7%
54 | Cc1cc(C)c(CN2C(=O)c3ccccc3S(=O)(=O)c3ccc(C(=O)OCC4CCCO4)cc32)c(C)c1 (stereo not drawn) | inactive: -10.5%
55 | CCS(=O)(=O)c1ncc(Cl)c(C(=O)N(Cc2ccccc2)c2ccc(OC)cc2)n1 | inactive: -20.5%
56 | CCOc1ccc2c(c1)c(=O)c(C(=O)c1ccc(C)cc1)cn2Cc1ccccc1OC | inactive: -12.2%
57 | CC(=O)c1cccc(NC(=O)N2CCC(CN3CCCCC3)CC2)c1 | inactive: -17.5%
58 | CC(C)c1ccc(NC(=O)Cn2c(=O)n(Cc3nc(-c4ccccc4)no3)c(=O)c3cc4c(cc32)OCO4)cc1 | inactive: -8.46%
59 | CCOc1ccccc1NC(=O)CN1C(=O)C2(SCC(=O)N2c2ccc(C)cc2)c2ccccc21 (stereo not drawn) | inactive: -14.1%
60 | CO[C@@]1(NC(=O)Cc2cccs2)C(=O)N2C(C(=O)O)=C(COC(N)=O)CS[C@@H]21 | inactive: -14%
61 | CS(=O)(=O)N1CCc2cc(C(=O)Nc3ccc(S(N)(=O)=O)cc3)ccc21 | inactive: -23.4%
62 | COc1cccc(Nc2sc(C(=O)c3ccc(Cl)cc3)c(N)c2C(=O)NCCc2ccc(OC)c(OC)c2)c1 | inactive: -20.9%
63 | CCc1ccc(NC(=O)c2ccc(F)c(S(=O)(=O)NCCc3ccc(OC)c(OC)c3)c2)cc1 | inactive: 4.82%
64 | COc1ccc(OC)c(Nc2c3c(nc4ccccc24)CCC3)c1 | inactive: -16.6%
65 | COc1cc(Cl)c(NC(=O)C(NS(=O)(=O)c2cccs2)C(C)C)c(OC)c1 (stereo not drawn) | inactive: -11.2%
66 | CCCN(Cc1cccs1)C(=O)Nc1ccc(F)c(Cl)c1 | inactive: -5%
67 | Cc1ccc(-n2ncc(C(=O)NCCCN3CCN(C)CC3)c2C2CCN(C(=O)OC(C)(C)C)CC2)c(C)c1 | inactive: -7.86%
68 | Cn1c(Oc2ccccc2)nc2c1c(=O)n(Cc1ccc(Cl)cc1Cl)c(=O)n2C | inactive: -13.5%
69 | CC(C)(C)OC(=O)N1CCC(c2c(C(=O)N3CCCCC3)cnn2-c2ccc(F)cc2F)CC1 | inactive: -20.8%
70 | CC(=O)c1ccc2c(c1)N(CCCN1CCC(CCO)CC1)c1ccccc1S2 | inactive: -12.9%
71 | Cc1ccc(C)c(NC(=O)Cn2c(=O)n(Cc3ccc4c(c3)OCO4)c(=O)c3ccccc32)c1 | inactive: 2.87%
72 | CCCSc1nnc2n(-c3cccc(C)c3)c(=O)c3c4c(sc3n12)CCCC4 | inactive: -7.07%

Row | Structure (SMILES) | activation
73 | Cc1cccc(C(=O)OCc2cc(=O)n3nc(-c4cccs4)sc3n2)c1 | inactive: -7.29%
74 | CCOC(=O)C1CCCN(C(=O)c2ccc(NC(=O)c3nsc4ccccc34)cc2)C1 (stereo not drawn) | inactive: -3.79%
75 | CNS(=O)(=O)c1cn(CC(=O)N2CCN(c3ccccc3OC)CC2)cc1S(=O)(=O)NC | inactive: -3.81%
76 | Cc1ccc2c(CC(=O)N(Cc3cccc(Cl)c3)C3CCS(=O)(=O)C3)coc2c1 (stereo not drawn) | inactive: 15.2%
77 | Cc1ccc(C(=O)CC2(O)C(=O)N(Cc3ccccc3)c3ccccc32)c(C)c1 (stereo not drawn) | inactive: -2.47%
78 | COC(=O)c1ccccc1NC(=O)Cn1c(=O)cc(C)c2c(C)nn(-c3cccc(Cl)c3C)c21 | inactive: -16.1%
79 | O=C(CCn1cnc2onc(-c3ccc(F)cc3)c2c1=O)N1CCN(c2ccccc2F)CC1 | inactive: -1.18%
80 | O=C(CC1Nc2cccc3cccc(c23)NC1=O)Nc1ccc(F)cc1 (stereo not drawn) | inactive: -22.1%
81 | COc1ccc(Cl)cc1NC(=O)Cn1cnc2sc(C)c(S(=O)(=O)N3CCN(c4ccccc4OC)CC3)c2c1=O | inactive: -13.1%
82 | N#Cc1cccc(NC(=O)CCNS(=O)(=O)c2ccc3c(c2)CCN3C(=O)C2CC2)c1 | inactive: -43.3%
83 | CC(C)OCCCN1C(=O)c2[nH]nc(-c3ccccc3O)c2C1c1cccc(OCc2ccccc2)c1 (stereo not drawn) | inactive: -8.31%
84 | Cc1ccc2c(c1)C(c1ccc(F)cc1)N(C(=O)c1cccc(C(F)(F)F)c1)CC(=O)N2 (stereo not drawn) | inactive: -20.5%
85 | Cc1ccc(-n2nnnc2CNC(=O)c2ccccc2C)cc1C | inactive: -14.5%
86 | COc1cccc(N2CCN(Cc3cc(=O)oc4cc(C)ccc34)CC2)c1 | inactive: -13.5%
87 | Cc1cc(C)cc(-n2ccnc2SCC(=O)Nc2nc3ccc(C)cc3s2)c1 | inactive: -20.3%
88 | COc1ccc(-c2nc(Cn3c(=O)cc(C)c4c(C)nn(-c5ccccc5)c43)c(C)o2)c(OC)c1 | inactive: -8.13%
89 | CN(C)c1ccc(CNC(=O)Cn2ccc3cc(S(=O)(=O)N4CCCCCC4)ccc32)cc1 | inactive: -2.92%
90 | O=C(Nc1nnc(S(=O)(=O)N2CCc3ccccc32)s1)c1ccccc1Cl | inactive: -12.2%
91 | CCOC(=O)c1c(C)[nH]c(CCC(=O)NCCCN2CCN(c3ccccc3F)CC2)c1C | inactive: -22.1%
92 | Cc1c2cnn(CC(=O)N3CCN(c4ccc(F)cc4)CC3)c(=O)c2c(C)n1Cc1ccccc1F | inactive: -34.4%
93 | COc1ccc(CNC(=O)C(=O)Nc2cc(Cl)ccc2OC)cc1 | inactive: -8.02%
